# Experimental data: the supplement of paper PMC8728848
# Some of the results follow.
# B1: ArathEULS3 (Arabidopsis thaliana), Q945P1 (protein)
# chain: MEHHHQHHRHHQRDDGEDDRQSFGVPPPHVDAPPQPHGLYQSQPHFDPYAPTPQAPAPYRSETQFEPHAPPPYRSEPYFETPAPPPSFGHVSHVGHQSPNESYPPEHHRYGGYQQPSNSLLESHGDHSGVTHVAHHSSNQPQSSSGVYHKPDENRLPDNLAGLAGRATVKVYSKAEPNYNLTIRDGKVILAPADPSDEAQHWYKDEKYSTKVKDADGHPCFALVNKATGEAMKHSVGATHPVHLIRYVPDKLDESVLWTESKDFGDGYRTIRMVNNTRLNVDAYHGDSKSGGVRDGTTIVLWDWNKGDNQLWKIFPFILEQKLISEEDLNSAVDHHHHHH
# Columns and labels:
# Assay in all cases: glycan array binding signal (z-score within array); higher = stronger binding
# Details in all cases: glycan notation: IUPAC condensed, linker removed
# Gal(b1-4)Glc6S = target: Gal(b1-4)Glc6S
# Outline: (§1)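 Negative Z-scores can be read as non-binding. The Z-score is calculated within each array and then averaged across arrays of one protein sequence at different concentrations or buffers and across linkers. Arrays, 3228 in all, were curated from the Consortium for Functional Glycomics database and kept only where the protein sequence was available.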
# Gal(b1-4)GlcNAc = target: Gal(b1-4)GlcNAc
# Outline: as §1
# [1] = target: Gal(b1-4)GlcNAc(a1-6)Gal(b1-4)GlcNAc
# Outline: as §1
# Gal(b1-4)GlcNAc(b1-2)Man = target: Gal(b1-4)GlcNAc(b1-2)Man
# Outline: as §1
# [2] = target: Gal(b1-4)GlcNAc(b1-2)Man(a1-3)Man(b1-4)GlcNAc(b1-4)GlcNAc
# Outline: as §1
# [3] = target: Gal(b1-4)GlcNAc(b1-2)Man(a1-3)[Gal(b1-4)GlcNAc(b1-2)Man(a1-6)]Man(b1-4)GlcNAc(b1-4)GlcNAc
# Outline: as §1
# [4] = target: Gal(b1-4)GlcNAc(b1-2)Man(a1-3)[Gal(b1-4)GlcNAc(b1-2)Man(a1-6)]Man(b1-4)GlcNAc(b1-4)[Fuc(a1-6)]GlcNAc
# Outline: as §1
# [5] = target: Gal(b1-4)GlcNAc(b1-2)Man(a1-3)[Gal(b1-4)GlcNAc(b1-2)][GlcNAc(b1-4)]Man(b1-4)GlcNAc(b1-4)GlcNAc
# Outline: as §1
# [6] = target: Gal(b1-4)GlcNAc(b1-2)Man(a1-3)[GlcNAc(b1-2)Man(a1-6)]Man(b1-4)GlcNAc(b1-4)GlcNAc
# Outline: as §1
# [7] = target: Gal(b1-4)GlcNAc(b1-2)Man(a1-3)[Man(a1-6)]Man(b1-4)GlcNAc(b1-4)GlcNAc
# Outline: as §1
# [8] = target: Gal(b1-4)GlcNAc(b1-2)Man(a1-6)Man(b1-4)GlcNAc(b1-4)GlcNAc
# Outline: as §1
# [9] = target: Gal(b1-4)GlcNAc(b1-2)Man(a1-6)[GlcNAc(b1-2)Man(a1-3)]Man(b1-4)GlcNAc(b1-4)GlcNAc
# Outline: as §1
# [10] = target: Gal(b1-4)GlcNAc(b1-2)Man(a1-6)[Man(a1-3)]Man(b1-4)GlcNAc(b1-4)GlcNAc
# Outline: as §1
# [11] = target: Gal(b1-4)GlcNAc(b1-2)[Gal(b1-4)GlcNAc(b1-4)]Man(a1-3)[Gal(b1-4)GlcNAc(b1-2)Man(a1-6)]Man(b1-4)GlcNAc(b1-4)GlcNAc
# Outline: as §1
# [12] = target: Gal(b1-4)GlcNAc(b1-2)[Gal(b1-4)GlcNAc(b1-4)]Man(a1-3)[Gal(b1-4)GlcNAc(b1-2)[Gal(b1-4)GlcNAc(b1-6)]Man(a1-6)]Man(b1-4)GlcNAc(b1-4)GlcNAc
# Outline: as §1
# [13] = target: Gal(b1-4)GlcNAc(b1-2)[Gal(b1-4)GlcNAc(b1-4)]Man(a1-3)[GlcNAc(b1-4)][Gal(b1-4)GlcNAc(b1-2)Man(a1-6)]Man(b1-4)GlcNAc(b1-4)GlcNAc
# Outline: as §1
# [14] = target: Gal(b1-4)GlcNAc(b1-2)[Gal(b1-4)GlcNAc(b1-4)]Man(a1-3)[GlcNAc(b1-4)][Gal(b1-4)GlcNAc(b1-2)[Gal(b1-4)GlcNAc(b1-6)]Man(a1-6)]Man(b1-4)GlcNAc(b1-4)GlcNAc
# Outline: as §1
# [15] = target: Gal(b1-4)GlcNAc(b1-2)[Gal(b1-4)GlcNAc(b1-4)]Man(a1-3)[GlcNAc(b1-4)][Gal(b1-4)GlcNAc(b1-2)[Gal(b1-4)GlcNAc(b1-6)]Man(a1-6)]Man(b1-4)GlcNAc(b1-4)[Fuc(a1-6)]GlcNAc
# Outline: as §1
# [16] = target: Gal(b1-4)GlcNAc(b1-2)[Gal(b1-4)GlcNAc(b1-6)]Man(a1-6)[Gal(b1-4)GlcNAc(b1-2)Man(a1-3)]Man(b1-4)GlcNAc(b1-4)GlcNAc
# Outline: as §1
# [17] = target: Gal(b1-4)GlcNAc(b1-2)[Gal(b1-4)GlcNAc(b1-6)]Man(a1-6)[Gal(b1-4)GlcNAc(b1-2)Man(a1-3)]Man(b1-4)GlcNAc(b1-4)[Fuc(a1-6)]GlcNAc
# Outline: as §1
# [18] = target: Gal(b1-4)GlcNAc(b1-2)[Gal(b1-4)GlcNAc(b1-6)]Man(a1-6)[GlcNAc(b1-4)][Gal(b1-4)GlcNAc(b1-2)Man(a1-3)]Man(b1-4)GlcNAc(b1-4)GlcNAc
# Outline: as §1
# [19] = target: Gal(b1-4)GlcNAc(b1-3)Gal(b1-3)GlcNAc
# Outline: as §1
# [20] = target: Gal(b1-4)GlcNAc(b1-3)Gal(b1-4)Glc
# Outline: as §1
# [21] = target: Gal(b1-4)GlcNAc(b1-3)Gal(b1-4)GlcNAc
# Outline: as §1
# [22] = target: Gal(b1-4)GlcNAc(b1-3)Gal(b1-4)GlcNAc(b1-3)Gal(b1-4)GlcNAc
# Outline: as §1
# [23] = target: Gal(b1-4)GlcNAc(b1-3)Gal(b1-4)[Fuc(a1-3)GlcNAc(b1-6)]Gal(b1-4)Glc
# Outline: as §1
# [24] = target: Gal(b1-4)GlcNAc(b1-3)Gal(b1-4)[Fuc(a1-3)]GlcNAc(b1-3)Gal(b1-4)[Fuc(a1-3)]GlcNAc
# Outline: as §1
# [25] = target: Gal(b1-4)GlcNAc(b1-3)GalNAc
# Outline: as §1
# [26] = target: Gal(b1-4)GlcNAc(b1-3)[Gal(b1-4)GlcNAc(b1-6)]Gal(b1-4)GlcNAc
# Outline: as §1
# [27] = target: Gal(b1-4)GlcNAc(b1-3)[Gal(b1-4)GlcNAc(b1-6)]GalNAc
# Outline: as §1
# [28] = target: Gal(b1-4)GlcNAc(b1-3)[GlcNAc(b1-6)]Gal(b1-4)GlcNAc
# Outline: as §1
# [29] = target: Gal(b1-4)GlcNAc(b1-6)Gal(b1-4)GlcNAc
# Outline: as §1
# [30] = target: Gal(b1-4)GlcNAc(b1-6)GalNAc
# Outline: as §1
# [31] = target: Gal(b1-4)GlcNAc(b1-6)[Gal(b1-3)]GalNAc
# Outline: as §1
# Gal(b1-4)GlcNAc6P = target: Gal(b1-4)GlcNAc6P
# Outline: as §1
# Gal(b1-6)Gal = target: Gal(b1-6)Gal
# Outline: as §1
# Gal3S(b1-3)GalNAc = target: Gal3S(b1-3)GalNAc
# Outline: as §1
binder,measurement,setting,value
B1,glycan array binding signal (z-score),Gal(b1-4)Glc6S,0.245
same,glycan array binding signal (z-score),Gal(b1-4)GlcNAc,0.233
same,glycan array binding signal (z-score),[1],-0.17
same,glycan array binding signal (z-score),Gal(b1-4)GlcNAc(b1-2)Man,-0.273
same,glycan array binding signal (z-score),[2],-0.234
same,glycan array binding signal (z-score),[3],0.449
same,glycan array binding signal (z-score),[4],-0.259
same,glycan array binding signal (z-score),[5],-0.012
same,glycan array binding signal (z-score),[6],0.158
same,glycan array binding signal (z-score),[7],-0.211
same,glycan array binding signal (z-score),[8],2.12
same,glycan array binding signal (z-score),[9],-0.327
same,glycan array binding signal (z-score),[10],0.11
same,glycan array binding signal (z-score),[11],-0.253
same,glycan array binding signal (z-score),[12],-0.031
same,glycan array binding signal (z-score),[13],-0.149
same,glycan array binding signal (z-score),[14],5.54
same,glycan array binding signal (z-score),[15],0.012
same,glycan array binding signal (z-score),[16],-0.242
same,glycan array binding signal (z-score),[17],-0.026
same,glycan array binding signal (z-score),[18],-0.312
same,glycan array binding signal (z-score),[19],-0.332
same,glycan array binding signal (z-score),[20],-0.056
same,glycan array binding signal (z-score),[21],-0.162
same,glycan array binding signal (z-score),[22],-0.236
same,glycan array binding signal (z-score),[23],-0.233
same,glycan array binding signal (z-score),[24],-0.246
same,glycan array binding signal (z-score),[25],-0.12
same,glycan array binding signal (z-score),[26],-0.182
same,glycan array binding signal (z-score),[27],-0.101
same,glycan array binding signal (z-score),[28],-0.1
same,glycan array binding signal (z-score),[29],-0.242
same,glycan array binding signal (z-score),[30],-0.013
same,glycan array binding signal (z-score),[31],-0.266
same,glycan array binding signal (z-score),Gal(b1-4)GlcNAc6P,-0.17
same,glycan array binding signal (z-score),Gal(b1-6)Gal,-0.083
same,glycan array binding signal (z-score),Gal3S(b1-3)GalNAc,-0.286
